From PubChem BioAssay AID504339 (National Center for Advancing Translational Sciences (NCATS), 2011)
Several values for one entry are separate records, joined by “and”; a condition that tells them apart may be missing. Identical values can stand only once. In all, about 390,000 compounds went through this assay and about 17,000 (4.4%) were called active. Inconclusive results, whose numbers are uncertain, are shown with a selection of clear calls. Calls follow the shape of the dose curve; as a rule, active = well fitted inhibition curve with a large enough effect; inconclusive = small, poorly fitted or top-dose-only effect; inactive = no such curve, though single readings can be large or run the other way. A potency beside an inconclusive call is a rough fit, not a confirmed value. Some compounds were tested as several samples or in several runs, with calls that do not always agree.

The molecules below were run against Lysine-specific demethylase 4A (Homo sapiens) (UniProt O75164) (assay: qHTS Assay for Inhibitors of JMJD2A-Tudor Domain). Settings: AlphaScreen JMJD2A-Tudor / H3K4me3 peptide binding; series mostly up to 114 µM.
Sequence of UniProt O75164 (O75164 whole entry, looked up, the tested form may be a part): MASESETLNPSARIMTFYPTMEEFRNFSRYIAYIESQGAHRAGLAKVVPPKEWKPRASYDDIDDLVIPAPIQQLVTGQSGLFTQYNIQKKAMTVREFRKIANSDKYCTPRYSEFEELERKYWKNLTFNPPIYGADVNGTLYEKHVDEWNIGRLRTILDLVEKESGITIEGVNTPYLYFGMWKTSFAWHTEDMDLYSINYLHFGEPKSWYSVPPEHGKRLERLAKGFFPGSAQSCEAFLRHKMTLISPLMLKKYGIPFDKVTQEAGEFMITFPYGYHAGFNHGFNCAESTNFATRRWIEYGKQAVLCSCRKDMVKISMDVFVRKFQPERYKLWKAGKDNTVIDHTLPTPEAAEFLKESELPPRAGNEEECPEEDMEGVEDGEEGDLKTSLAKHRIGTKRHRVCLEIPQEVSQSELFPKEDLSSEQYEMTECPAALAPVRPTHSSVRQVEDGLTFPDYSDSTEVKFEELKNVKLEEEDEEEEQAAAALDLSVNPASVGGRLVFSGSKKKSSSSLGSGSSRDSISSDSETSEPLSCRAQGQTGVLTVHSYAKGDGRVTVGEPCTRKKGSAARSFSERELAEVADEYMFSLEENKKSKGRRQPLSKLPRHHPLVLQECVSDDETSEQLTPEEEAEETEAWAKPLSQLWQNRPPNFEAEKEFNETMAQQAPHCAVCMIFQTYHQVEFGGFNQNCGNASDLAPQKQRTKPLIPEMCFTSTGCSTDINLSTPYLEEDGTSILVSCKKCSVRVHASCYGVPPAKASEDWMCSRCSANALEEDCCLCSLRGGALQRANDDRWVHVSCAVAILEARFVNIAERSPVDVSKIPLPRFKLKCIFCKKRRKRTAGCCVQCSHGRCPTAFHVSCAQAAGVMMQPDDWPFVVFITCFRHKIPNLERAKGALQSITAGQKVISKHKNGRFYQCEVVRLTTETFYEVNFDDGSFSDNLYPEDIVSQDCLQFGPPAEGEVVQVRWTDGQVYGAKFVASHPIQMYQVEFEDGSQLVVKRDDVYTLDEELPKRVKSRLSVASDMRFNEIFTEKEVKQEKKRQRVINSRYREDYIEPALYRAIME
Also: nearly all actives have a fitted effect of over 50% in size.
Potency is read from the fitted curve at half-maximal effect; tags tell the direction and shape of the fitted curve.

Structure (SMILES) | Potency
Cc1cc2nc(CSc3ccccc3)cc(=O)n2[nH]1 | inconclusive: 50.1 µM [inhibitor, partial curve, poor fit]
Cc1cccc2[nH]c3c(N4CC=C(c5ccc(F)cc5)CC4)ncnc3c12 | inconclusive: 25.1 µM [inhibitor, full curve, poor fit]
CSCCC(NC(=O)c1ccc([N+](=O)[O-])cc1Cl)C(=O)OCC(=O)NC1CCCC(C)C1C (configuration not stated) | inconclusive: 44.7 µM [inhibitor, partial curve]
CN(c1ccccc1)c1nc(N)c([N+](=O)[O-])c(N2CCCCC2)n1 | inconclusive: 50.1 µM [inhibitor, partial curve]
CCc1cccc(C)c1NC(=O)CNCc1ccccc1 | active: 8.91 µM
Cc1ccc(C(=O)O)cc1NC(=S)NC(=O)c1ccc([N+](=O)[O-])cc1Cl | inconclusive: 70.8 µM [inhibitor, single point]
O=C(Nc1ccc(N2CCCCC2)c(S(=O)(=O)Nc2ccccc2Cl)c1)c1cccnc1 | inconclusive: 63.1 µM [inhibitor, partial curve]
Cc1ccc2c(c1)C(c1ccncc1)=NNC(c1ccccc1)=N2 | inactive
CN1CCN(c2ccccc2NC(=O)c2ccc([N+](=O)[O-])o2)CC1 | inactive
CCOC(=O)N1CCC(N(CCN(C)C)C(=S)Nc2ccc(Oc3ccccc3)cc2)CC1 | inconclusive: 12.6 µM [inhibitor, single point]
CN1CCN(c2oc(-c3ccccc3)nc2S(=O)(=O)c2ccc(Br)cc2)CC1 | active: 56.2 µM
CC(=O)Nc1ccc(-c2nnc(SCC(=O)NCc3ccco3)n2C)cc1 | inconclusive: 63.1 µM [inhibitor, partial curve, poor fit]
Cc1ccc(NC(=S)NNC(=O)c2ccccc2O)c(C)c1 | inconclusive: 3.98 µM [inhibitor, full curve, poor fit]
CCOc1ccc(N(C)C(=O)CCc2nnc3ccc(NCc4ccco4)nn23)cc1 | inconclusive: 89.1 µM [inhibitor, partial curve, poor fit]
O=C(CN1C(=O)COc2ccccc21)N1CCCc2ccccc21 | inactive
CCOc1ccc(NC(=O)[C@@H]2CCC(=O)N2C2OC(=O)c3ccccc32)cc1 (some centres not stated) | inconclusive: 89.1 µM [inhibitor, single point]
CCCn1c(C(C)Nc2nc(-c3ccc(OC)cc3)cs2)nc2ccccc21 (configuration not stated) | inconclusive: 56.2 µM [inhibitor, partial curve]
COC(=O)COc1ccc(NS(=O)(=O)c2cccc([N+](=O)[O-])c2)cc1 | inconclusive: 63.1 µM [inhibitor, partial curve, poor fit]
Cc1cccc(N2CCN(C(=O)c3cnn(-c4ccccc4)c3C3CCN(C(=O)OC(C)(C)C)CC3)CC2)c1C | inconclusive: 39.8 µM [inhibitor, full curve, poor fit]
Cc1cccc(OCc2nnc(-c3ccc(F)cc3)o2)c1 | inactive
Cc1cc(C)cc(N=c2c([N+](=O)[O-])nn(-c3cccc(Cl)c3)n2O)c1 | inconclusive: 20 µM [inhibitor, partial curve]
O=C(COc1ccccc1[N+](=O)[O-])N/N=C/C=C/c1ccco1 | inactive
O=C(O)CCCCCN1C(=O)/C(=C\c2ccc(-c3ccc(Cl)cc3)o2)SC1=S | active: 31.6 µM
CCn1c(CN2C(=O)CSc3ccccc32)n[nH]c1=S | inconclusive: 20 µM [inhibitor, single point]

Structure (SMILES) | Potency
CC(OC(=O)c1cccs1)C(=O)NCCc1ccccc1 (configuration not stated) | inactive
O=C(N/N=C/c1ccc2cccnc2c1)c1nc2ccccc2c(=O)[nH]1 | inconclusive: 0.631 µM [inhibitor, full curve, poor fit]
O=C(O)CCc1nn2cnc3sc4c(c3c2nc1=O)CCCC4 | inactive
O=C(C(=O)N1CCCCC1)c1c(-c2ccccc2)[nH]c2ccccc12 | inactive
Cc1ccc(/C(=N/Nc2nc3ccccc3s2)C2=C(O)c3ccccc3C2=O)cc1 | inconclusive: 10 µM [inhibitor, full curve, poor fit]
Cc1onc(-c2ccccc2Cl)c1C(=O)N(Cc1ccc(N(C)C)cc1)C(C)C | active: 39.8 µM
O=C(Nn1c(C2CCCCC2)nc2ccccc2c1=O)c1ccc([N+](=O)[O-])cc1 | inactive
S=c1[nH]nc(-c2ccco2)n1-c1ccccc1Cl | active: 5.01 µM
Cc1cc(C)c(Cn2c(C3CC(=O)N(c4ccc(F)cc4)C3)nc3ccccc32)c(C)c1 (configuration not stated) | inactive
Cc1ccc(S(=O)(=O)N2CCN(C(=O)c3ccco3)CC2)cc1 | inconclusive: 89.1 µM [inhibitor, single point]
CC(C)OC(=O)c1c(-c2ccccc2)c(-c2ccccc2)nn(C)c1=O | inactive
Cc1cccc(-n2nc3c(c2NC(=O)CCCl)CSC3)c1 | inactive
Cc1c([N+](=O)[O-])cc(C(=O)Nc2ccc3ncccc3c2)cc1[N+](=O)[O-] | inconclusive: 44.7 µM [inhibitor, partial curve]
COc1ccc(-n2c(-c3ccc(Cl)cc3Cl)n[nH]c2=S)c(OC)c1 | active: 12.6 µM
COc1cc(O)c(C(C)=O)c(OC)c1 | inactive
O=C(O)CCN1CC2([N+](=O)[O-])C=CC(=O)C([N+](=O)[O-])(C1)C2CC(=O)c1ccccc1 (configuration not stated) | inconclusive: 28.2 µM [inhibitor, single point]
CSc1nc(C)cc(SC(C(C)=O)C(=O)Nc2ccccc2)n1 (configuration not stated) | active: 56.2 µM
Cc1cc2cc(C(c3nnnn3CC3CCCO3)N3CCCc4ccccc43)c(=O)[nH]c2cc1C (configuration not stated) | inconclusive: 22.4 µM [inhibitor, full curve]
COCCNC(=O)C(c1ccccc1)N(Cc1cccs1)C(=O)Cn1nnc2ccccc21 (configuration not stated) | inactive
Cc1ccc(CN2CCN(C3CCN(C(=O)Nc4ccc(C)cc4Cl)CC3)C(=O)C2=O)cc1 | inactive
CCCCNS(=O)(=O)c1ccc(C)c(-c2nnc3c4ccccc4c(C)nn23)c1 | inactive
N#Cc1sc(=O)[nH]c1Cl | inactive and active: 89.1 µM
NC(=O)CC(NC(=O)c1ccccc1)c1ccc(NCc2ccc(F)c(F)c2)c([N+](=O)[O-])c1 (configuration not stated) | inconclusive: 100 µM [inhibitor, partial curve, poor fit]
CNS(=O)(=O)c1cn(CC(=O)Nc2ccc(C(C)=O)cc2)cc1S(=O)(=O)NC | inactive

Structure (SMILES) | Potency
COc1ccc2cc(C(c3nnnn3Cc3ccccc3)N3CCCCCC3)c(=O)[nH]c2c1 (configuration not stated) | inactive
CCN(Cc1ccccc1)C(=O)C1CCN(Cc2ccc(SC)cc2)CC1 | active: 20 µM
O=c1c2cnn(-c3ccccc3)c2ncn1Cc1ccccc1F | inactive
COc1ccc(NC(=O)C2CCN(c3ccc(Sc4ccc(C)cc4)nn3)CC2)c(OC)c1 | inactive
CC(C)[C@H](NC(=O)N1CC(=O)Nc2ccccc21)C(=O)N[C@H](C(=O)O)c1ccccc1 | inconclusive: 20 µM [inhibitor, full curve, poor fit]
CC(C)CC1Nc2ncnc(N3CCN(c4ccccc4)CC3)c2N(Cc2ccc(Cl)cc2)C1=O (configuration not stated) | inconclusive: 39.8 µM [inhibitor, partial curve]
CCc1ccc(N2CC(C(=O)Nc3ccc(S(=O)(=O)NCC4CCCO4)cc3)CC2=O)cc1 (configuration not stated) | inactive
CC/C(=N/N=C(/CC)c1ccc(O)cc1)c1ccc(O)cc1 | inconclusive: 89.1 µM [inhibitor, partial curve]
O=C(O)c1ccc(/C=N/Nc2cccc(C(F)(F)F)c2)cc1 | inactive
COc1cc(CC(=O)N2CCN(S(=O)(=O)c3ccc(C)cc3)CC2)cc(OC)c1OC | inactive
CCN(CCCn1c(=S)[nH]c2ncccc2c1=O)c1ccccc1 | inactive
CCOC(=O)c1ccc(CNCc2ccccc2)cc1 | inactive
COc1cccc(NC(=O)c2nnn(CC(=O)Nc3cc(C)cc(C)c3)c2N)c1 | active: 28.2 µM
COc1ccc(N=c2cc(-c3ccc(O)cc3)oc3ccccc23)cc1 | active: 35.5 µM
Cc1c(Cl)cnc(NC(=O)COC(=O)c2ccncc2)c1Cl | inconclusive: 22.4 µM [inhibitor, full curve]
Cc1ccc(C)c(N2CCN(C(c3ccc(N(C)C)cc3)c3nnnn3C(C)(C)C)CC2)c1 (configuration not stated) | inconclusive: 39.8 µM [inhibitor, partial curve]
Cc1ccc([C@H]2C(C(=O)O)=CC[C@@H](c3ccc(C(C)C)cc3)N2S(=O)(=O)c2ccc(C)cc2)cc1 | inconclusive: 79.4 µM [inhibitor, partial curve]
CCOc1cc(CNc2ccccc2)cc(Br)c1OCC(=O)NC(C)(C)C | inconclusive: 44.7 µM [inhibitor, partial curve]
C=CCOc1c(OC)cc(/C=N/Nc2cccc(C(=O)O)c2)c(Br)c1Br | active: 56.2 µM
CCCN(CCC)CC(O)Cn1cc(/C=C/C(=O)c2ccc(Br)cc2)c2ccccc21 (configuration not stated) | inconclusive: 56.2 µM [inhibitor, single point]
COc1ccc(C2CC(=O)c3c(C)nc(N4CCN(Cc5ccccc5)CC4)nc3C2)cc1OC (configuration not stated) | inconclusive: 50.1 µM [inhibitor, partial curve]
O=[N+]([O-])c1ncc(Br)cc1Nc1ccccc1 | inconclusive: 56.2 µM [inhibitor, partial curve, poor fit]
Nc1[nH][nH]c(=O)c1N=Nc1cccc(Cl)c1 | inconclusive: 22.4 µM [inhibitor, full curve, poor fit]
COc1cc(CNc2ncnc3c2[nH]c2ccc(C)cc23)cc(OC)c1 | inconclusive: 39.8 µM [inhibitor, full curve]
